# Test results: ChEMBL document CHEMBL4888484, “Replenishing the malaria drug discovery pipeline: Screening and hit evaluation of the MMV Hit Generation Library 1 (HGL1) against asexual blood stage Plasmodium falciparum ,using a nano luciferase reporter read-out” (2022)
# The campaign covered roughly 150,000 compounds. About 540 (0.36%) showed an effect of 50% or more. The list shows a part of the results.
# Tested on: Plasmodium falciparum
# Test: Primary screen in NF54 nanoGlo assay, in single point, at 2uM, 72h; a lower Z score goes with more inhibition
# Format: functional, Erythrocyte
# Conditions: timepoint 72 hour
Structure (SMILES),% Inhibition,Z score
O=C(Nc1ccc2oc(-c3cccnc3)nc2c1)c1cc2ccccc2o1,-10%,1.83
CN(C)Cc1noc(-c2ccccc2Oc2ccccc2)n1,-6%,0.8
O=C(NC[C@H]1CCCO1)C1CCN(S(=O)(=O)c2ccc3c(c2)CCCN3C(=O)C2CCC2)CC1,-14%,2.65
C[C@@H](C(=O)NCCN1C(=O)CCCC1=O)c1cccs1,-4%,0.45
COC[C@H]1CCCN1[C@@H]1[C@H](O)[C@H](CO)O[C@@H]1CNC(=O)c1ccccc1,-2%,0.3
CC(C)(C)OC(=O)NC1(C(=O)O)CC(c2ccccc2)C1 (stereo not drawn),-16%,2.02
COc1cccc(-c2ccc(N3CCCN(C(=O)CN(C(=O)C4CCC4)C4CC4)CC3)nn2)c1,-17%,1.49
CC(C)CCn1cccc1CNCC1CCOC1c1cnn(C)c1 (stereo not drawn),-11%,0.94
CN(Cc1cccc(N(C)C)c1)Cc1csc(-c2ccoc2)n1,-5%,0.54
COC(=O)c1ccc(Nc2ccc3[nH]c(C)cc3c2)nn1,10%,-1.44
CC(=O)N[C@H]1CCN(C(=O)c2ccc(-c3cc(O)c(F)c(F)c3)cc2)C1,12%,-1.64
Cc1n[nH]c(C)c1S(=O)(=O)Nc1cccc2cccnc12,-2%,0.25
C[C@@H]1CN(C(=O)c2ccc(C(F)(F)F)nc2)C[C@H](C)N1C,-5%,0.75
CCCn1cc(Cn2cnc3cnccc3c2=O)cn1,-14%,2.26
Cc1cc(CN(C)C(=O)[C@H]2CC(=O)N(c3ccccc3)C2)no1,-3%,0.62
COc1ccccc1CCNC(=O)c1cc(Cc2ccccc2Cl)no1,-4%,0.84
Cc1[nH][nH]c(=O)c1[C@H](CC(N)=O)c1cccc2cccnc12,-11%,1.4
CCCn1nccc1S(=O)(=O)NCCN1CCCC[C@@H]1CO,-15%,1.78
Cc1[nH]nc(-c2ccc(S(=O)(=O)Nc3ccccc3)s2)c1C,-5%,0.61
Cn1c(=O)ccc2ccc(NCc3ccncc3)cc21,-3%,0.57
COc1ccnc(C(=O)N(C)Cc2cscn2)c1,-11%,1.5
CN(Cc1ccncc1)Cc1ccc(C#N)o1,-3%,0.35
Cc1ccc(Nc2nc(C(=O)NC3CCCC3)cs2)c(C)c1,1%,-0.13
COc1ccccc1C1=NS(=O)(=O)N(C)C(C(=O)N2CCCc3ccccc32)=C1,-10%,1.86
